# Reference: PubChem BioAssay AID624418 (National Center for Advancing Translational Sciences (NCATS), 2012)
# The whole screen tested about 410,000 compounds, of which about 530 (0.13%) were called active. Inconclusive results, whose numbers are uncertain, are shown with a selection of clear calls. Calls follow the shape of the dose curve; as a rule, active = well fitted inhibition curve with a large enough effect; inconclusive = small, poorly fitted or top-dose-only effect, or another doubt; inactive = no such curve, though single readings can be large or run the other way. Potencies of inconclusive entries are doubtful fits and often do not repeat.
# Assay: qHTS of GLP-1 Receptor Inverse Agonists: Cytotox Screen
# Details: HEK293 cAMP-luciferase reporter cells, luminescence, 24 h; activity change, negative = inhibition: at 38.3 µM (top of the series) unless noted
# Summary of the method: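 Quantitative HTS format, 1536 wells, 200 cells/uL seeded. Compounds: 23 nL, 24 h, 37 °C. Detection: luciferase reagent, luminescence at 12 min RT; decreased signal taken as cytotoxic.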
# % is scaled to controls: 0 for no effect and ±100 for the full control effect; potency is read from the fitted curve at half-maximal effect.
SMILES,Potency,"activity change, negative = inhibition"
O=c1c2c([N+](=O)[O-])cc([N+](=O)[O-])cc2sn1-c1ccc(Br)cc1,inactive,
Cc1ccc(OCc2nnc(SCC(=O)Nc3cccc4ccccc34)n2-c2ccccc2)cc1,"inconclusive: 28.2 µM [inhibitor, single point]",
CCOC(=O)C1CCN(C(=O)Cc2c(C(=O)O)n(CC)c3ccccc23)CC1,"inconclusive: 28.2 µM [inhibitor, single point]",
COc1ccc(CCN2C(=O)CS/C2=N\NC(=O)c2ccc(C(C)(C)C)cc2)cc1OC,"inconclusive: 4.47 µM [inhibitor, full curve, poor fit]",
C=C[C@@H]1c2cc(C)ccc2N(S(=O)(=O)c2ccc(C)cc2)[C@H](c2ccc(OC(C)=O)cc2)C1(C#N)C#N,"inconclusive: 3.16 µM [inhibitor, full curve, poor fit]",
COCCCNCCOc1ccc(C(C)(C)c2ccccc2)cc1,"inconclusive: 28.2 µM [inhibitor, single point]",
c1ccc(-c2cccc(-c3ccccn3)n2)nc1,"inconclusive: 8.91 µM [inhibitor, partial curve, poor fit]",
Cc1ccc(CNC(=O)c2c(Nc3ccccc3C)sc(C(=O)c3ccc(F)cc3)c2N)cc1,"inconclusive: 15.8 µM [inhibitor, single point]",
COc1cccc(-c2nn(C)c3sc(C(=O)NCc4ccc(OC)cc4OC)cc23)c1,inactive,
O=C(Nc1ccc2snnc2c1)Nc1cccc2ccccc12,"inconclusive: 31.6 µM [inhibitor, single point]",
O=C(CCn1c(=O)c2ccccc2n(CC(=O)Nc2ccc(F)cc2)c1=O)NCCc1ccccc1,inactive,
CC(C)(C)c1cc[n+](C2=C([O-])c3ccccc3C(=O)/C2=N\S(=O)(=O)c2cccs2)cc1,"inconclusive: 11.2 µM [inhibitor, single point]",
COc1ccc(C(C)(C)C)cc1NC(=O)C1CCCO1 (stereo unspecified),inactive,
C[C@@H](NC(=O)Cn1ccc(N)nc1=O)c1cccc2ccccc12,"inconclusive: 2.24 µM [inhibitor, full curve, poor fit]",
O=C(N/N=C/c1ccccc1Cl)c1[nH]c2ccc(Br)cc2c1-c1ccccc1,"inconclusive: 6.31 µM [inhibitor, partial curve, poor fit]",
O=S(=O)(NCCCN1CCN(c2ccccc2F)CC1)c1cccc2cccnc12,"inconclusive: 10 µM [inhibitor, partial curve, poor fit]",
COc1cccc(OC)c1OCCN1CCCC1,"inconclusive: 28.2 µM [inhibitor, single point]",
CCn1c(=O)c2c(nc3n2CCS3)n(C)c1=O,inactive,
[O-][n+]1cccc2c(Br)cc(Br)c(O)c21,inactive,
CCOc1ccc(NS(=O)(=O)c2ccc(C(=O)NNC(=O)c3ccccc3O)cc2)cc1,"inconclusive: 14.1 µM [inhibitor, single point]",
COc1ccc2cc(C(=O)N(C)Cc3ccccc3)[nH]c2c1,inactive,
COc1ccc(Cl)cc1NC(=O)c1c(C(=O)Nc2cccc(C)c2C)sc2nc(C)cc(=O)n12,inactive,

SMILES,Potency,"activity change, negative = inhibition"
Cc1ccc(NC(=O)C(OC(=O)c2ccc(NC(N)=O)cc2)c2ccccc2)cc1Cl (stereo unspecified),"inconclusive: 11.2 µM [inhibitor, partial curve, poor fit]",
Cc1ccc2nc(NC(=O)c3cc(-c4ccco4)nc4ccccc34)sc2c1,inactive,
Cn1ncc2c(O/N=C(\N)c3ccc(C(C)(C)C)cc3)ncnc21,active: 10 µM,
COc1ccc(/C=C/c2nnc(NC(C)=O)s2)cc1,"inconclusive: 28.2 µM [inhibitor, single point]",
CN[C@H]1C[C@H]2c3[nH]c4ccc(-c5cccc(C)c5)cc4c3CCN2C[C@H]1[C@H](C)O,"inconclusive: 28.2 µM [inhibitor, single point]",
Cc1ccc(S(=O)(=O)n2ccc3c(OCCOCCNCc4ccc(F)cc4)cccc32)cc1,,inconclusive: -92.1% [inhibitor]
Cc1oc(-c2ccccc2F)nc1Cn1c(SCc2ccccc2F)nc2ccncc21,inactive,
Oc1ccc(C=Nc2ccc(N3CCOCC3)cc2)c(O)c1,"inconclusive: 28.2 µM [inhibitor, single point]",
CC(/C=N/NC(=O)Cc1cccn1C)=C\c1ccccc1,inactive,
O=C(Nc1nccs1)c1cn(-c2ccccc2)nc1-c1ccccc1,"inconclusive: 14.1 µM [inhibitor, single point]",
COc1ccc(C(NC(=O)C2CCCCC2)c2c(O)ccc3ccccc23)cc1 (stereo unspecified),"inconclusive: 10 µM [inhibitor, single point]",
O=C(NCCC1CCCCN1S(=O)(=O)c1cccs1)C(=O)Nc1ccc(F)cc1 (stereo unspecified),"inconclusive: 5.01 µM [inhibitor, full curve, poor fit]",
O=C1c2ccccc2C(=O)c2[nH]c(=O)[nH]c21,"inconclusive: 11.2 µM [inhibitor, partial curve, poor fit]",
CN=C1SC(CC(=O)Nc2ccc(F)cc2F)C(=O)N1/N=C(\C)c1cccc(OCC(=O)O)c1 (stereo unspecified),"inconclusive: 22.4 µM [inhibitor, single point]",
CC(O)(c1ccccc1)C(c1ccccc1)C1CCCCN1 (stereo unspecified),inactive,
CCOC(=O)c1cnc(-n2nc(C)cc2C)nc1NCCc1ccccc1,"inconclusive: 2.82 µM [inhibitor, full curve]",
Cc1nn(-c2nc3ccccc3[nH]2)c(N)c1-c1ccccc1,"inconclusive: 31.6 µM [inhibitor, partial curve, poor fit]",
Cc1cc2n(n1)SC(Nc1ccc(F)c(Cl)c1)N2 (stereo unspecified),"inconclusive: 10 µM [inhibitor, partial curve, poor fit]",
CC(NCCN(C)C)C1CCC2C3CCc4cc(O)ccc4C3CCC12C (stereo unspecified),"inconclusive: 12.6 µM [inhibitor, single point]",
CC/C(O)=C(/C#N)c1nnc2n1CCCCC2,inactive,
COc1cc(OC)c2c(=O)cc(-c3ccccc3)oc2c1,inactive,
NC(=O)CN(N=Nc1cccc([N+](=O)[O-])c1)c1cccc([N+](=O)[O-])c1,"inconclusive: 14.1 µM [inhibitor, single point]",

SMILES,Potency,"activity change, negative = inhibition"
CCN(CC)S(=O)(=O)c1ccc(N2CCCC2)c(NC(=O)c2c(-c3ccccc3)noc2C)c1,"inconclusive: 2.51 µM [inhibitor, partial curve, poor fit]",
CCOc1cc2[nH]c(=O)n(Cc3ccc(C(=O)NCCCN4CCC(C)CC4)cc3)c(=O)c2cc1OCC,"inconclusive: 12.6 µM [inhibitor, partial curve, poor fit]",
C=CCN(CC=C)C(=S)NC(=O)/C=C/c1ccc(OC)cc1,inactive,
CCOc1ccc(NC(=O)C(CC)n2nc(-c3ccc(C)c(C)c3)ccc2=O)cc1 (stereo unspecified),inactive,
CCOC(=O)c1c(C)[nH]c(C)c1S(=O)(=O)NCCN1CCN(c2cc(Cl)ccc2C)CC1,"inconclusive: 12.6 µM [inhibitor, single point]",
O=C(N/N=C\c1ccccn1)C1COc2cc3ccccc3cc2O1 (stereo unspecified),"inconclusive: 28.2 µM [inhibitor, single point]",
CCn1c(Cl)c(C=O)s/c1=N\S(=O)(=O)c1ccccc1,"inconclusive: 7.94 µM [inhibitor, partial curve]",
NC(=O)c1sc2nc(N3CCOCC3)c3c(c2c1N)CCCC3,inactive,
O=C(CN1C(=O)/C(=C/c2ccco2)SC1=S)NC1CCS(=O)(=O)C1 (stereo unspecified),"inconclusive: 12.6 µM [inhibitor, single point]",
O=C(/C=C/c1ccccc1)NC(=S)Nc1ccc(CN2CCOCC2)cc1,"inconclusive: 28.2 µM [inhibitor, single point]",
COc1ccc(Nc2nc(N)nc(CSc3nc4ccccc4s3)n2)cc1,inactive,
CC(C)Nc1nc(NC(C)C)nc(SCCOC(=O)Nc2ccc(Cl)cc2Cl)n1,"inconclusive: 31.6 µM [inhibitor, single point]",
Cc1ccc(/C=N/n2c(COc3ccccc3)n[nH]c2=S)cc1,inactive,
COc1c(CC=C(C)C)cc(C2CC(=O)c3c(O)cc(O)cc3O2)cc1CC=C(C)C (stereo unspecified),"inconclusive: 20 µM [inhibitor, single point]",
CCOc1ccccc1C(=O)OCC(=O)Nc1ncc(C(F)(F)F)cc1Cl,inactive,
CCCCNCc1cc(Br)c(OCC(=O)NCc2ccccc2)c(OC)c1,"inconclusive: 2 µM [inhibitor, partial curve, poor fit]",
CCN(CC)CCNC(C(=O)Nc1cc(C(F)(F)F)ccc1Cl)c1ccccc1 (stereo unspecified),"inconclusive: 28.2 µM [inhibitor, single point]",
Cc1cc2c(cc1C)CSC(c1c(O)ccc3ccccc13)SC2,"inconclusive: 28.2 µM [inhibitor, partial curve, poor fit]",
COc1cc(/C=C/C(=O)OCC(=O)NCc2ccco2)ccc1O,"inconclusive: 15.8 µM [inhibitor, partial curve, poor fit]",
O=C1N[C@@H](c2ccccc2)COC(=O)[C@H](Cc2ccc(F)cc2)C/C=C\C[C@@H]1CC(=O)N(CCO)Cc1ccccc1,"inconclusive: 20 µM [inhibitor, single point]",
CCOC(=O)c1ccc(N2C(=O)c3[nH]nc(-c4ccccc4)c3C2c2cccs2)cc1 (stereo unspecified),"inconclusive: 11.2 µM [inhibitor, single point]",
Cc1cccc(N(CC(=O)NC2CCCC2)C(=O)CS(=O)CC(=O)Nc2ccc3c(c2)OCO3)c1 (stereo unspecified),"inconclusive: 1 µM [inhibitor, full curve, poor fit]",
